Experimental data reported in PubChem BioAssay AID1487 (National Center for Advancing Translational Sciences (NCATS), 2009).
Screen size: about 200,000 compounds; about 25 (0.01%) were called active. Roughly 23% stayed inconclusive and do not appear here. Calls follow the shape of the dose curve; as a rule, active = well fitted inhibition curve with a large enough effect in the signal ratio, with a control signal flat (not every such curve was filed as active); inconclusive = small, poorly fitted or top-dose-only effect, or effect the other way, or a change in a side signal; inactive = flat fitted curve, though single readings scatter; the % refers to the signal ratio. This is a selection; strong and weak results do not stand in their true shares.

test: qHTS Assay for Modulators of Lamin A Splicing; conditions: HeLa LMNA splicing GFP/RFP minigene ratio, 48 h; series mostly up to 46.1 µM; ratio change, negative = inhibition: at the top concentration
Description: NCGC Assay Overview: Hutchinson-Gilford Progeria Syndrome (HGPS) is a pediatric premature aging disease caused by a spontaneous mutation in the lamin A/C (LMNA) gene. The mutation activates a cryptic splice site in the LMNA pre-mRNA which results in production of a pre-lamin A protein that cannot be processed properly. The mutant protein accumulates in the nucleus and negatively affects numerous cellular functions. Correction of the splicing defect in HGPS patient cells using a targeted oligonucleotide (exo11) leads to reversal of the cellular disease phenotypes. To identify small molecule modulators of aberrant LMNA splicing, a homogenous assay was constructed in HeLa cells that used a GFP containing minigene to report on correction of aberrant splicing in lamin A and a RFP (DsRed2) to report on cell viability, uniformity and nonspecific effects on the assay signal. This assay was adapted to laser-scanning microplate cytometry (Acumen, TTP Labtech) where miniaturization of the assay to a 1,536-well plate format was possible. References: Bowen, W. P.; Wylie, P. G. Application of Laser-Scanning Fluorescence Microplate Cytometry in High Content Screening. Assay Drug Dev Technol 2006;4:209-221. Scaffidi P, Misteli T. Reversal of the cellular phenotype in the premature aging disease Hutchinson-Gilford progeria syndrome. Nat.
NCGC Assay Protocol Summary: Reagents/Controls: Stable clones expressing DsRed2 and lamin A-EGFP were generated by Cell and Molecular Technologies in S3 HeLa cells. HeLa cells were prepared for the assay when they were 70-90% confluent. The cells were counted and resuspended in Opti-MEM I (no phenol red; Gibco), 2% FBS, 1% penicillin/ streptomycin (Gibco) at concentration of 120 cells/uL concentration. The suspension was passed through a Falcon basket filter with pore size 40um (Beckton Dickson). Control titrations: column […] 1536-well plate contained a sixteen point titration (1:2 dilutions) in duplicate of ancitabine (Sigma: A8598) beginning at 40 uM final concentration. Column 2 contained a sixteen point titration (1:2 dilutions) of cycloheximide beginning at 1.4 mM final concentration. Column 3 contained ancitabine at 40 uM and column 4 contained was the vehicle control (0.5% DMSO final concentration). Assay Steps: 5 uL of HeLa cells were plated in Aurora LoBase black clear bottom (cyclic-olefin polymer) 1536-well plates at a final density of 600 cells/well. Controls and library compounds were added with a 1536-well pin array using the Kalypsys pin-tool. The plates were then incubated for 48 hrs in a cell-culture incubator (37 °C; 5% CO2, 98% humidity). Following incubation the plates were read on the Acumen Explorer using the 488 nm laser. Data was collected on objects between 10 and 100 um in size. Cell objects were defined by a 15 um width x 10 um depth filter. The ratio of the total object intensity in PMT1 (500-530 nm emission; GFP) over PMT3 (575-640 nm emission; RFP) was calculated for analysis. Keywords: NIH Roadmap, MLSCN, MLI, MLSMR, qHTS, NCGC, lamin A, Progeria, RNA splicing.
% is scaled to controls: 0 for no effect and ±100 for the full control effect.

| SMILES | ratio change, negative = inhibition | Potency |
| --- | --- | --- |
| CCCN1CCO[C@@H]2c3cc(O)ccc3OC[C@H]21 | inactive: -10.6% |  |
| Brc1c(NC2=NCCN2)ccc2nccnc12 | inactive: -4.93% |  |
| CN1C(=O)CCS(=O)(=O)C1c1ccc(Cl)cc1 (configuration not stated) | inactive: -5.04% |  |
| CN1[C@@H](CC(=O)c2ccccc2)CCC[C@H]1C[C@H](O)c1ccccc1 |  | inactive |
| COc1ccccc1N1CCNCC1 | inactive: -13% |  |
| Oc1ccc(Cl)cc1Cc1cc(Cl)ccc1O | inactive: -14.5% |  |
| CCCC[N+]1(C)C2CC(OC(=O)C(CO)c3ccccc3)CC1C1OC12 (configuration not stated) | inactive: -16% |  |
| Oc1ccc2c3c1O[C@H]1[C@@H](O)CC[C@@]4(O)C(C2)N(CC2CCC2)CCC314 (some centres not stated) | inactive: -21.9% |  |
| CCCC(C)(COC(N)=O)COC(=O)NC(C)C (configuration not stated) | inactive: -7.37% |  |
| COc1cc2c(cc1O)CC1c3c(cc(O)c(OC)c3-2)CCN1C (configuration not stated) | inactive: 5.36% |  |
| NN=C(N)N | inactive: -13.4% |  |
| Clc1ccc(C(c2ccc(Cl)cc2)C(Cl)(Cl)Cl)cc1 | inactive: -7.48% |  |
| OC(c1ccccc1)(c1ccccc1)C1CCNCC1 | inactive: -4.5% |  |
| CN(C)CCC=C1c2ccccc2CCc2ccccc21 | inactive: -23.8% |  |
| C[C@]12CC[C@H]3C(=CCc4cc(O)ccc43)[C@@H]1CCC2=O | inactive: 6.94% |  |
| COC(=O)[C@H]1C[C@@H]1[C@H](NP(=O)(c1ccccc1)c1ccccc1)c1ccccc1 | inactive: -4.55% |  |
| Oc1ccc(C2NCc3ccccc3-n3cccc32)cc1Cl (configuration not stated) | inactive: -29% [at 46 µM] |  |
| CC(C)[C@@]1(NC(=O)[C@@H]2C[C@H]3c4cccc5[nH]cc(c45)C[C@@H]3N(C)C2)O[C@]2(O)[C@H]3CCCN3C(=O)[C@H](Cc3ccccc3)N2C1=O | inactive: -16.2% |  |
| CCC(CO)NC(=O)[C@@H]1C=C2c3cccc4[nH]cc(c34)C[C@H]2N(C)C1 (some centres not stated) | inactive: -17.7% |  |
| CC[C@H](CO)NC(=O)[C@H]1C=C2c3cccc4[nH]cc(c34)C[C@@H]2N(C)C1 | inactive: -17.4% |  |
| CC(=O)Nc1cc([As](=O)(O)O)ccc1O | inactive: 13.6% |  |
| CN(C)C(=O)Oc1ccc[n+](C)c1 | inactive: -2.94% |  |
| c1ccc(CNc2ncnc3nc[nH]c23)cc1 | inactive: 9.82% |  |
| CN[C@H](C)[C@H](O)c1ccccc1 | inactive: -6.44% [at 46 µM] |  |
| C[C@@H](COc1ccccc1)N(CCCl)Cc1ccccc1 | inactive: -7.31% |  |
| C[C@H]1O[C@H]1P(=O)(O)O | inactive: -0.636% |  |

| SMILES | ratio change, negative = inhibition | Potency |
| --- | --- | --- |
| CC(C)C(=O)Nc1ccc([N+](=O)[O-])c(C(F)(F)F)c1 | inactive: -4.77% |  |
| CNC(=O)Oc1ccc2c(c1)[C@]1(C)CCN(C)[C@@H]1N2C |  | inactive |
| CN(C)C(=O)Oc1cccc([N+](C)(C)C)c1 | inactive: -2.3% |  |
| O=c1[nH]cnc2[nH]ncc12 | inactive: -12.9% |  |
| CP(=O)(O)CCCN | inactive: 7.09% |  |
| CN1C2CC(OC(=O)C(CO)c3ccccc3)CC1C1OC12 (configuration not stated) | inactive: -14.1% |  |
| CC[N+](CC)(CC)CCOc1cccc(OCC[N+](CC)(CC)CC)c1OCC[N+](CC)(CC)CC | inactive: 4.1% |  |
| O=C(O)c1ccccc1Nc1cccc(C(F)(F)F)c1 | inactive: -13.7% |  |
| c1ccc2c(c1)Nc1ccccc1S2 | inactive: 0.25% |  |
| COP(=O)(OC)C(O)C(Cl)(Cl)Cl (configuration not stated) | inactive: 5.07% |  |
| C[C@]12N[C@@H](Cc3ccccc31)c1ccccc12 |  | inactive |
| CC(C)C[C@H]1C(=O)N2CCCC2[C@]2(O)O[C@](NC(=O)[C@@H]3C=C4c5cccc6[nH]cc(c56)CC4N(C)C3)(C(C)C)C(=O)N12 (some centres not stated) | inactive: 3.22% |  |
| Cc1cc(C(C)(C)C)cc(C)c1CC1=NCCN1 | inactive: -3.92% |  |
| C[C@]12CC[C@H](O)C[C@@H]1CC[C@H]1[C@H]2CC[C@]2(C)C(=O)CC[C@@H]12 |  | inactive |
| CC(C)C[C@H]1C(=O)N2CCC[C@@H]2[C@]2(O)O[C@](NC(=O)[C@H]3C=C4c5cccc6[nH]c(Br)c(c56)C[C@H]4N(C)C3)(C(C)C)C(=O)N12 | inactive: -14.6% |  |
| C=CCN1CC[C@]23c4c5ccc(O)c4O[C@@H]2C(=O)CC[C@]3(O)[C@H]1C5 | inactive: -11.4% |  |
| NCC(CC(=O)O)c1ccc(Cl)cc1 (configuration not stated) |  | inactive |
| COc1ccc2c(c1OC)C(=O)O[C@H]2[C@H]1c2cc3c(cc2CCN1C)OCO3 | inactive: -2.73% |  |
| CCC1(C2=NCCN2)Cc2ccccc2O1 (configuration not stated) | inactive: -2.04% |  |
| COc1ccc2c3c1O[C@H]1C[C@@H](O)C=C[C@@]31CCN(C)C2 | inactive: -5.51% [at 46 µM] |  |
| O=C(CCCN1CCC2(CC1)C(=O)NCN2c1ccccc1)c1ccc(F)cc1 | inactive: 21.6% |  |
| COc1cc2ccc(=O)oc2c2ccoc12 | inactive: -7.01% |  |
| NCC1(CC(=O)O)CCCCC1 |  | inactive |
| COc1ccc2c(c1OC)C(=O)OC2C1c2cc3c(cc2CCN1C)OCO3 (configuration not stated) | inactive: -21.9% |  |
| CC(C)c1cccc(C(C)C)c1O |  | inactive |
| CN1[C@H]2CC(OC(=O)[C@@H](CO)c3ccccc3)C[C@H]1[C@H]1O[C@H]12 (some centres not stated) | inactive: -11.8% |  |
